# From PMC4336329 (PLoS ONE, 2015)
# Screen size: about 310,000 compounds; about 14,000 (4.5%) showed an effect of 50% or more. The effect is printed as a negative number. The list shows a part of the results.
# Target: human ether-à-go-go-related gene (hERG) potassium channel (human, UniProt Q12809)
# Test: primary screen, population patch clamp on CHO cells stably expressing hERG
# 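Also: peak tail current of the secondary pulse compared with the same well before compound.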
# Chain of human ether-à-go-go-related gene (hERG) potassium channel (Q12809 whole entry, looked up): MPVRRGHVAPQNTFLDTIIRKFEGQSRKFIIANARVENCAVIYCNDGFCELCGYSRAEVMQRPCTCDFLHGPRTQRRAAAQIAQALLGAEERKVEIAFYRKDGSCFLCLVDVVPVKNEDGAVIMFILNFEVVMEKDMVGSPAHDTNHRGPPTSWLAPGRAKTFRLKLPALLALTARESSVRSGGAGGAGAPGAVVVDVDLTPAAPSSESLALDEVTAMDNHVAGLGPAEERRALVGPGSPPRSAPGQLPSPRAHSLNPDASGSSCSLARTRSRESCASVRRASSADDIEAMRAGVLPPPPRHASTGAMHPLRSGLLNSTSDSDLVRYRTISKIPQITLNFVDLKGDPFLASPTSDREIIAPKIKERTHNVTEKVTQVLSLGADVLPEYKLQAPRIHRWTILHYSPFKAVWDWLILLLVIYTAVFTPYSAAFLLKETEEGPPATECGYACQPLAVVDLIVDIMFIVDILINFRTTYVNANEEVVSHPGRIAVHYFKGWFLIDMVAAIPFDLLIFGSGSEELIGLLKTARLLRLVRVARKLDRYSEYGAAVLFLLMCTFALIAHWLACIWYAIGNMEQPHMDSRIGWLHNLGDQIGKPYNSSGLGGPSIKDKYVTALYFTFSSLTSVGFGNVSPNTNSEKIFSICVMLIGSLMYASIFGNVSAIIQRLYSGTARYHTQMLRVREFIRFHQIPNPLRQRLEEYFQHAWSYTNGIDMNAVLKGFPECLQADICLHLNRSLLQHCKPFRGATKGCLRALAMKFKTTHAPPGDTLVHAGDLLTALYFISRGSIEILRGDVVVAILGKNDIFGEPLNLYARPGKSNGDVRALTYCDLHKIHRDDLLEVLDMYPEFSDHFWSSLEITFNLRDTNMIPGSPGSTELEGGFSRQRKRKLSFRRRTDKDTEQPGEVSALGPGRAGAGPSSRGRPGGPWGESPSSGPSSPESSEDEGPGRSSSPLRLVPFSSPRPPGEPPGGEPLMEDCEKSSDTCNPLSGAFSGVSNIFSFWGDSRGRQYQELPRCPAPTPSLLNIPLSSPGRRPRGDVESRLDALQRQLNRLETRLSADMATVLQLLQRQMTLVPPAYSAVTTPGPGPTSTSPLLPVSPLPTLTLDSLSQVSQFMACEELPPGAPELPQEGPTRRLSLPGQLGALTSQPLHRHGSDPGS
row,Structure (SMILES),"hERG current change (%, negative = inhibition) at 10uM [%]"
1,O=C(NC1CCCc2ccccc21)c1ccc(S(=O)(=O)N2CCOCC2)cc1 (stereo not shown),-4.41
2,C/C(=N\Nc1ccccn1)c1cccs1,10.6
3,Cc1ccc2[nH]cc(/C=C/c3cc[n+](C)cc3)c2c1.[I-],-5.51
4,CC(=O)Nc1ccc(S(=O)(=O)Nc2cc3c(cc2C(C)=O)OCO3)cc1,20.7
5,COC(=O)c1sc(S(=O)(=O)NC(Cc2ccccc2)C(=O)O)c(C(=O)OC)c1C (stereo not shown),1.57
6,CCOc1ccccc1N(C)C(=O)c1cc2c(=O)n(CC)c3ccccc3c2s1,-6.11
7,O=C(CSc1nc(=O)n2ccccc2n1)Nc1ccc2c(c1)OCCO2,-17.9
8,COC(=O)[C@H](C)NC(=O)NC(C)CCc1ccccc1 (stereo partly shown),-3.35
9,COC(=O)C1=C(N)Oc2cc(C)[nH]c(=O)c2C1c1ccc(Cl)cc1 (stereo not shown),-15.3
10,CCOC(=O)C1=C(C)N(C)C(=S)NC1c1cccc(Cl)c1Cl (stereo not shown),-3.3
11,Oc1ccc(-c2nc3ccccc3s2)c(O)c1,26.8
12,O=C(Nc1ccccc1)c1ccc(NC(=O)C2CC2)cc1,2.57
13,CC1=C(C(=O)OC(C)C)C(c2ccccc2Cl)CC(=O)N1 (stereo not shown),7.66
14,N#CCCN1CCNCC1,13.1
15,CCCCNC(=O)c1ccccc1NC(=O)c1ccccc1N(C)S(C)(=O)=O,-0.037
16,CCCCNC(=O)CSc1nnc(-c2cccc(S(=O)(=O)N3CCOCC3)c2)o1,-18.1
17,CN1C(=O)/C(=C2\SC(N)=NC2=O)c2ccccc21,8.44
18,Cc1ccc(NC(=O)CCc2nnc3ccc(N4CCC5(CC4)OCCO5)nn23)cc1F,-12.7
19,O=c1[nH]c(CN2CCc3ccccc32)nc2scc(-c3cccs3)c12,0.482
20,CC1CCCC(NC(=O)NC(=O)COC(=O)C2=NN(c3ccccc3)C(=O)CC2)C1C (stereo not shown),0.805
21,COc1ccccc1CNC(=O)C1CCC(=O)N(CCCc2ccccc2)C1 (stereo not shown),-9.31
22,CC(=O)N1CCCN(Cc2cn(-c3ccc(C)cc3)nc2-c2ccc(F)cc2)CC1,-30.3

row,Structure (SMILES),"hERG current change (%, negative = inhibition) at 10uM [%]"
1,Nc1nc(-c2ccco2)nn1C(=O)c1ccc([N+](=O)[O-])cc1,13.4
2,COCCNC(=O)C(=O)Nc1ccc(Cl)cc1C,2.84
3,CCN(CC)CCNC(=O)c1cc2cc3ccc(OC)cc3nc2o1,-18
4,C=CCn1c(SCc2ccc(F)cc2)nnc1-c1sc2nc(C)cc(C)c2c1N,-1.46
5,CCOC(=O)N1CCC(NC(=O)C(Cc2ccccc2)NC(=O)C2CCCCC2)CC1 (stereo not shown),0.496
6,Cc1[nH]c(=O)c(C#N)c(C)c1Cc1ccc(Cl)cc1Cl,24.5
7,COc1ccccc1N/N=C/c1c(CO)cnc(C)c1O.Cl,0.579
8,COC(=O)COc1ccc(S(=O)(=O)Nc2ccc(C(N)=O)cc2)cc1C,19.1
9,COc1ccccc1-c1nnc2n1N=C(C(C)(C)C)CS2,-11.5
10,O=C(NCCCCc1ccccc1)C1CC(c2cccc([N+](=O)[O-])c2)=NO1 (stereo not shown),-38.6
11,CCn1c(C)[n+](CCOC(C)=O)c2cc(Cl)c(Cl)cc21.[I-],-8.87
12,Cc1cccc(C)c1NS(=O)(=O)c1ccc(F)cc1,-7.71
13,COc1ccccc1OCC(=O)Nc1ccc(S(=O)(=O)N2CCCC2)cc1,-22.5
14,O=C1CN(C(=S)NC(=O)c2ccccc2[N+](=O)[O-])CCN1,16.9
15,C#Cc1ccc([C@@H]2C=C(C(=O)N3CCOCC3)O[C@H](OCCCCO)C2)cc1,17.3
16,O=c1cc(-c2ccc(O)cc2)oc2c([C@@H]3O[C@H](CO)[C@@H](O)[C@H](O)[C@H]3O)c(O)c([C@@H]3O[C@H](CO)[C@@H](O)[C@H](O)[C@H]3O)c(O)c12,11.8
17,Cc1oc2c(C)c3oc(=O)c(CCC(=O)N[C@@H](CC(C)C)C(=O)O)c(C)c3cc2c1C,13.4
18,Cc1cc(C(=O)NC2CCCC2)c2ccccc2n1,9.7
19,FC(F)(F)c1cccc(Nc2nc(N3CCOCC3)nc(N3CCOCC3)n2)c1,15.6
20,CCOc1ccc(OCC)c(NC(=O)C2CCN(S(=O)(=O)c3c(C)noc3C)CC2)c1,-3.97
21,Cc1cccc(N2CCN(CC(=O)N(C3CCCC3)C3CCS(=O)(=O)C3)CC2)c1C (stereo not shown),-13.3
